Experimental data as given in the supplement of paper PMC5655136.
These are enrichments in a pooled selection; single values are uncertain.

tested on: NB7; test: fold depletion of shRNA, plasmid library share / infected cells without Dox share (9 days) (ratio); higher = more depleted after infection (more toxic, leaky expression from a Tet-inducible vector; NB7 is a neuroblastoma line without caspase-8); details: shRNA pool: CD95L ORF + CD95L 3'UTR + Venus libraries
Method: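 Pooled lethality screen in NB7 neuroblastoma cells infected with Dox-inducible pTIP shRNA libraries. The libraries tile every 21-mer of the Venus, CD95L or CD95 ORF / 3'UTR; each hairpin is the 21-nt sense sequence + CTCGAG loop + antisense. Cells were cultured 9 days with or without 100 ng/ml Dox. shRNA representation was measured by deep sequencing of the genomic inserts, normalised to the total reads per subpool and averaged over technical replicates. Fold depletion is the plasmid library share / infected cells without Dox share (mean of 2 biological replicates), and the -Dox/+Dox share ratio is the mean of 4 replicate pairings; higher values mean more depletion (toxicity).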
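Note: shRNA barcodes quantified by deep sequencing of PCR amplicons from cellular DNA, counts expressed as percent of each subpool, ratio averaged over two biological duplicates.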

Row | Sequence | fold depletion of shRNA
1 | AGATGTGCATTTTTGTGAAAT | 3.54
2 | CACCGCCACCACTACCACCTC | 1.37
3 | TTGATTGTCAGCTACTAATGA | 1.74
4 | TCCATTATGATTCTTTGTTAC | 1.14
5 | GTTTTGGGGACTCATTTCATT | 30.9
6 | ACAGCCACAACGTCTATATCA | 1.48
7 | AGGTCAAGTAAGAAGACATGA | 3.04
8 | ATGCTTCCTGACAATCAACTC | 0.603
9 | CCAGAAGGCCTGGTCAAAGGA | 5.58
10 | TGAAACTGGGCTGTACTTTGT | 0.949
11 | AGTCCACCCCCTGAAAAAAAG | 10.5
12 | GTGGACAGCAGTGCCAGCTCT | 2.62
13 | CTAAAGAGGCTGAAAGAGGCC | 1.17
14 | GATCTACTGGGTGGACAGCAG | 0.998
15 | CTGTCTTTCAGATACATGGTT | 3.05
16 | GCATTTGGTCAAGATTTTGAA | 1.83
17 | TGGACGGCGACGTAAACGGCC | 0.811
18 | CAGTGTTCAATCTTACCAGTG | 2.31
19 | CCACCCCAGTCCACCCCCTGA | 31.6
20 | CTTGTGATGTTTTTCATGGTT | 0.968

Row | Sequence | fold depletion of shRNA
21 | CATCTTCTTCAAGGACGACGG | 1.16
22 | CAAAGGAGGCCACCACCACCA | 0.818
23 | CCACCCTCGTGACCACCCTGG | 0.969
24 | ATCTTTGGAGAAGCAAATAGG | 1.01
25 | ATTGTCCTGCTTTCTGGAGTG | 1.67
26 | CTACACTCATCTTAGTGCCTG | 1.92
27 | CTCATCTTAGTGCCTGAGAGT | 1.75
28 | GAGAAGCACTTTGGGATTCTT | 0.751
29 | CCCCCATCGGCGACGGCCCCG | 0.571
30 | GGCCCATTTAACAGGCAAGTC | 0.695
31 | CGGCGAGGGCGAGGGCGATGC | 3.29
32 | GTCCGGCGAGGGCGAGGGCGA | 0.339
33 | ATTGTCAGCTACTAATGATGT | 2.27
34 | AGTACATATTAGGAAAATATG | 0.635
35 | TGCCCGTGCCCTGGCCCACCC | 0.512
36 | CAAGGAGGACGGCAACATCCT | 1.2
37 | TAAGAAGGGTGGCCTTGTGAT | 13.9
38 | ATGGTGAGCAAGGGCGAGGAG | 1.05
39 | TTCAATCTTACCAGTGCTGAT | 0.883
40 | TTTTTCGGCTTATATAAGCTC | 2.11

Row | Sequence | fold depletion of shRNA
41 | GACGGCGGCGTGCAGCTCGCC | 0.557
42 | GGACGACGGCAACTACAAGAC | 0.451
43 | CGCACCATCTTCTTCAAGGAC | 3.27
44 | TCCGCCCTGAGCAAAGACCCC | 1.88
45 | TGAGCTACTGCACTACTGGGC | 4.48
46 | ATCCTGGGGCACAAGCTGGAG | 0.415
47 | TGCACCACCGGCAAGCTGCCC | 0.695
48 | CTGCTGGAGTTCGTGACCGCC | 0.767
49 | ACTCACCTCTCAAGGTGGGCC | 2.08
50 | CCTACAGAAGGAGCTGGCAGA | 0.71
51 | CTACGTCCAGGAGCGCACCAT | 2.28
52 | ACAGAAGGAGCTGGCAGAACT | 2.16
53 | GAGAGATGTTTTGGGGACTCA | 9.46
54 | ATTCTTTGTTACAGGCACCGA | 2.86
55 | TGGGATTCTTTCCATTATGAT | 1.63
56 | TAGAGGCTTGCATAATAAGCT | 7.6
57 | GAAAAGGAAGACTAGAGGCTT | 1.18
58 | AAGACATGAACCAAGTGGACC | 2.06

same assay, conditions: shRNA pool: CD95 ORF + CD95 3'UTR + Venus libraries

Row | Sequence | fold depletion of shRNA
59 | CAATTCCACTAATTGTTTGGG | 1.08
60 | AGCCAATCTTTGTACTCTTGC | 2.91
61 | ATCCTGAAACAGTGGCAATAA | 1.03
62 | TCAACTTCATGGAAAGAAAGA | 0.84
63 | TGAAGGACATGGCTTAGAAGT | 1.5
64 | ACTACCTACTTCTTTCTCAGG | 1.83
65 | ATTTTAAGAAATAATATTTAT | 0.759
66 | ACAGCCACAACGTCTATATCA | 2.35
67 | ACTCCAAGGGATTGGAATTGA | 1.57
68 | CATTAAATTATAATGTTTGAC | 1.07
69 | ATAATATTTATATTTCTGTAA | 1.06
70 | GTAAAGTATATGTATTTGAGT | 1.22
71 | CCTACTTCTTTCTCAGGCATC | 2.15
72 | TGCCATAAGCCCTGTCCTCCA | 3.9
73 | ATATCTCATGATTCTGCCTCC | 1.41
74 | GGGAAGGAGTACACAGACAAA | 1.7
75 | AATTCAGACTATCATCCTCAA | 1.19
76 | GTATGACACATTGATTAAAGA | 1
77 | GCTATGACCTTTTGCTGAAAT | 1.34
78 | TTAAAATCTAGTTGGGAAAAC | 1.14
79 | TGGACGGCGACGTAAACGGCC | 0.545
80 | CAGAATTTAAATAAGGCTCTA | 0.771
81 | AGACTGCGTGCCCTGCCAAGA | 1.23
82 | GAAGGCCTGCATCATGATGGC | 30.1
83 | CATCTTCTTCAAGGACGACGG | 0.929

Row | Sequence | fold depletion of shRNA
84 | CCACCCTCGTGACCACCCTGG | 0.967
85 | TAATGCCCAAGTGACTGACAT | 1.27
86 | AAGTACGTAATTAAATAATGT | 0.925
87 | CCTTGCACCAAATGTGAACAT | 1.63
88 | CCCCCATCGGCGACGGCCCCG | 1.89
89 | TCGAAAGAATGGTGTCAATGA | 1.52
90 | TAGATTTTTAATATCTCATGA | 1.09
91 | TGGAAAGAAAGAAGCGTATGA | 0.895
92 | CGGCGAGGGCGAGGGCGATGC | 3.9
93 | TATTACTAGAGCTTTGCCACC | 0.525
94 | GTCCGGCGAGGGCGAGGGCGA | 0.869
95 | AGAAGCTATGACCTTTTGCTG | 0.971
96 | TGCCCGTGCCCTGGCCCACCC | 1.81
97 | AGATCTAACTTGGGGTGGCTT | 8.78
98 | CAACTGCTTCGTAATTGGCAT | 0.902
99 | CAAGGAGGACGGCAACATCCT | 2.09
100 | TGTTTGAAAAGATTCTTAATA | 0.994
101 | TTGGAATTGAGGAAGACTGTT | 0.777
102 | AAGAAGCTATGACCTTTTGCT | 1.81
103 | ATGGTGAGCAAGGGCGAGGAG | 1.1
104 | GGAGATACTAACTGCTCTCAG | 2.9
105 | ACTGAAGCAGATACCTGGAAC | 3.05
106 | GACGGCGGCGTGCAGCTCGCC | 0.743
107 | GGACGACGGCAACTACAAGAC | 0.633
108 | CGCACCATCTTCTTCAAGGAC | 1.85

Row | Sequence | fold depletion of shRNA
109 | GATTTTTAATATCTCATGATT | 0.743
110 | TGTCCAAGACACAGCAGAACA | 1.96
111 | TTGTAGATTTTTAATATCTCA | 1.44
112 | TCCGCCCTGAGCAAAGACCCC | 0.971
113 | ATCCTGGGGCACAAGCTGGAG | 0.557
114 | GTTCAACTGCTTCGTAATTGG | 0.558
115 | CATAGAAAACATTAAATTATA | 1.03
116 | TGCACCACCGGCAAGCTGCCC | 1.57
117 | CTGCTGGAGTTCGTGACCGCC | 0.969
118 | GGCTTTGTCTTCTTCTTTTGC | 1.67
119 | TCTGGACCCTCCTACCTCTGG | 0.923
120 | ATAATGTCCCATGTAAAACCT | 3.19
121 | TTTAAAATCTAGTTGGGAAAA | 0.498
122 | CTACGTCCAGGAGCGCACCAT | 1.17
123 | GTATATGTATTTGAGTGCAGA | 1.99
124 | CAACTTTAAATCCTGAAACAG | 0.579
125 | CGTGCCCTGCCAAGAAGGGAA | 1.01
126 | CAAAATAGATGAGATCAAGAA | 0.861
127 | AACTTTGTTTATAACTCTGAG | 1.34
128 | CAATCAAAGATGATAAAATAG | 0.296
129 | AAAGAACTTCCATTTATGGAG | 1.33
130 | AAACTTCATCAAGAGTAAATG | 1.14
131 | TAAGTCAAGTTAAAGGCTTTG | 1.09
132 | AGAGAAAATTCAGACTATCAT | 1.2
133 | TGTAAAGTATATGTATTTGAG | 0.865
